Assays:
[1] = test system: ASIC currents (ASIC1a-like) in cortical neurons; test: Patch-clamp recording of ASIC (ASIC1a-like) currents in primary cultured mouse cortical neurons; conditions: for effect of analogs on ASIC currents (structure-activity): 10 μM, n=3
mice brain after MCAO = conditions: mouse, in vivo
[2] = test system: primary cultured mouse cortical neurons; test: Acidosis-induced neuronal injury, FDA/PI staining; conditions: 1 and 10 μM, pH 6.0 for 1.5 h, MK-801 10 μM added, 24 h after acid treatment
[3] = molecular target: T1, heteromeric ASIC1a/2a channels (UniProt P78348+Q62962); conditions: pH 6
T1 sequence (P78348 1-528): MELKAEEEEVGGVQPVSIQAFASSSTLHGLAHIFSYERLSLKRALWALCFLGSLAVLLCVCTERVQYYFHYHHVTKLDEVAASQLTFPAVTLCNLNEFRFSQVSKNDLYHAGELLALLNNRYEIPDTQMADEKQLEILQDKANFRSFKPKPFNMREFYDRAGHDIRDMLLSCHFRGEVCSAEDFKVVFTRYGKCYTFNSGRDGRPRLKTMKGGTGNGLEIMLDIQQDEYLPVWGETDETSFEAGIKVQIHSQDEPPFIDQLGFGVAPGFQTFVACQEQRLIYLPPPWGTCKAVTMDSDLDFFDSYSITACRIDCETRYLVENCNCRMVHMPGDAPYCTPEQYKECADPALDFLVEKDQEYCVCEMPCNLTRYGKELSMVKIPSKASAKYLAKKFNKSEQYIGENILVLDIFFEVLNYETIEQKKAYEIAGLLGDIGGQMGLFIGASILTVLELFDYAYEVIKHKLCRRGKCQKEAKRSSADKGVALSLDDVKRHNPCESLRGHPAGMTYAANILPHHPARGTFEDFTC
T1 sequence (Q62962 1-512): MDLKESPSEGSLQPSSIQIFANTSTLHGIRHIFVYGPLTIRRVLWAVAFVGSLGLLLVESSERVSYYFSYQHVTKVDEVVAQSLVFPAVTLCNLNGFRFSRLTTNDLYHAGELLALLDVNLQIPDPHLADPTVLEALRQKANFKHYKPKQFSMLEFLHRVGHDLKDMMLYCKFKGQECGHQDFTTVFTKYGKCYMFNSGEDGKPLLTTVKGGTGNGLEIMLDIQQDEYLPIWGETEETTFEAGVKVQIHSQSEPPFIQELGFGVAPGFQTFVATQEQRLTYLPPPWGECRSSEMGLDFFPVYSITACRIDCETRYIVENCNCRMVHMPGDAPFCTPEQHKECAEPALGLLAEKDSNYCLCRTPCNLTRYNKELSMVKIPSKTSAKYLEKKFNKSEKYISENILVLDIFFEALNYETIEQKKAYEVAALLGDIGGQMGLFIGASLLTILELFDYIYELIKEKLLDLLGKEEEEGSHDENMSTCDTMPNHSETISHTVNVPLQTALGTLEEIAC

How did the “effect of analogs on ASIC currents (structure-activity)” value (shortened to “effect of analogs on ASIC currents”) [1] turn out when `CC(C)CCC[C@@H](C)[C@H]1CC[C@H]2[C@@H]3C[C@@H]4O[C@@]45C[C@@H](O)CC[C@]5(C)[C@H]3CC[C@]12C` [5α,6α-epoxy-Chol, 5α,6α-epoxycholesterol] was run?
Its value is “complete loss of the activity”.

For `CC(C)CCC[C@@H](C)[C@H]1CC[C@H]2[C@@H]3CC=C4C[C@@H](O)CC[C@]4(C)[C@H]3CC[C@]12C` [cholesterol], which “effect of analogs on ASIC currents” value [1] is on record?
Its value is “complete loss of the activity”.

For “PcTx1: potent and specific inhibitor for homomeric ASIC1a and heteromeric ASIC1a/2b channels”, which “effect of PcTx-1 on ASIC currents in the presence of Triol” value [1] is on record?
Its value is “no more inhibition”.

What about the “sensitivity of neuronal ASIC currents to PcTx1 blockade” value [1] of the same compound?
Its value is “sensitive to PcTx1 blockade”.

What about the infarct volume (mice brain after MCAO) of the same compound?
Its infarct volume is “significantly reduced”.

`CC(C)CCC[C@@H](C)[C@H]1CC[C@H]2[C@@H]3C[C@@H](O)[C@@]4(O)C[C@@H](O)CC[C@]4(C)[C@H]3CC[C@]12C` [Triol, cholestane-3β, 5α, 6β-triol] was tested. Which “cell death (FDA/PI staining)” value [2] did it give?
Its value is “inhibited the cell death in a concentration-dependent manner”.

What about the “effect on remaining currents after PcTx-1 blockage” value [3] of the same compound?
Its value is “inhibited”.

With `CC(C)CCC[C@@H](C)[C@H]1CC[C@H]2[C@@H]3C[C@H]4O[C@]45C[C@@H](O)CC[C@]5(C)[C@H]3CC[C@]12C` [5β,6β-epoxy-Chol, 5β,6β-epoxycholesterol] as the compound, how does the “effect of analogs on ASIC currents” value [1] read?
The value was “complete loss of the activity”.

— US20240165129A1, “METHODS OF TREATING PAIN AND DEPRESSION” (priority 2022, published 2024)
